Experimental data: the supplement of paper PMC4723716
Several values for one entry are separate records, joined by “and”; a condition that tells them apart may be missing. Identical values can stand only once. ± gives the uncertainty stated by the source. Over roughly 9,900 compounds, “viability index relative to DMSO control” has its median near 1; the lowest 2% begin near 0.85. Some of the results follow.

Test system: Plasmodium falciparum NF54 stage V gametocytes
Assay: viability index relative to DMSO control (fraction); higher = less gametocyte killing
Details: 2.5 µM, library set: Broad Institute DOS, incubation time: 72 h
Method in brief: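 Gametocytes (P. falciparum NF54, stage V) were treated with compound at 2.5 µM for 72 hr at 37°C in low oxygen, in serum-free medium at 0.75% gametocytemia and 1.25% hematocrit. Counts of 20–70 µm2 red particles, taken from one field per well after MitoTracker Red CMXRos with saponin, were divided by the plate mean of solvent-only wells. This ratio is the viability index.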

Compound | viability index
Cc1ccc(S(=O)(=O)Nc2cccc3c2O[C@@H](CN(C)C(=O)Nc2ccc(C(F)(F)F)cc2)[C@@H](C)CN([C@@H](C)CO)C3=O)cc1 | 1.05 ± 0.033
O=C(N[C@@H]1CC[C@H](CC(=O)N2CCOCC2)O[C@H]1CO)c1cccc(F)c1 | 1.07 ± 0.062
COc1ccccc1C(=O)N1C[C@H]2[C@@H](c3ccccc31)[C@@H](CO)N2CC1CCCC1 | 1.051 ± 0.0014
COCC(=O)N1C[C@]2(CN(Cc3ccc(Cl)cc3)C2)c2c([nH]c3cc(OC)ccc23)[C@@H]1CO | 0.979 ± 0.02
Cn1cnc(CCNC(=O)[C@@H]2[C@@H](CO)[C@@H]3Cn4c(cccc4=O)[C@@H]3N2C(=O)Nc2ccccc2)c1 | 1.053 ± 0.0063
C[C@@H]1CN([C@@H](C)CO)C(=O)c2cc(Br)cnc2O[C@@H]1CN(C)Cc1ccc(Oc2ccccc2)cc1 | 1.02 ± 0.039
O=C(Cc1ccccn1)N1CC[C@@H]2[C@H](CO)Nc3ccc(-c4cccc(F)c4)cc3[C@@H]21 | 1.04 ± 0.032
COCC(=O)N1[C@H](C#N)[C@@H](c2ccc(C#CCC3CCCC3)cc2)[C@H]1CO | 1.06 ± 0.072
C[C@H]1CN([C@@H](C)CO)C(=O)CCCn2cc(nn2)CO[C@@H]1CN(C)C(=O)Nc1cccc2ccccc12 | 0.9542 ± 0.0035
CCCC#Cc1ccc([C@H]2[C@@H](CO)N(C(C)=O)[C@H]2CN(C)C(=O)C2CC2)cc1 | 1.02 ± 0.044
CCC(=O)N1[C@H](CO)[C@H](c2ccc(C3=CCCC3)cc2)[C@@H]1CNC1CCCCC1 | 1.09 ± 0.02
COCC(=O)Nc1ccc2c(c1)OC[C@@H](C)N(C(=O)CN1CCOCC1)C[C@@H](C)[C@H](OC)CN(C)C2=O | 1.084 ± 0.0016
CN1C(=O)c2cc(NC(=O)c3cccc(F)c3)ccc2OC[C@H]2O[C@H](CC(=O)NCC3CCCCC3)CC[C@H]21 | 0.987 and 1.19
COc1ccc2c3c([nH]c2c1)[C@@H](CO)N(C[C@]31CN(C1)C(=O)c1ccccc1)S(C)(=O)=O | 1.01 ± 0.069
COc1cccc(NC(=O)N2CC(=O)N3[C@H](C2)[C@H](c2ccc(C#CCC4CCCC4)cc2)[C@@H]3CO)c1 | 1.11 ± 0.027
C[C@@H]1CN([C@H](C)CO)C(=O)c2cc(-c3cccc(C(=O)N(C)C)c3)cnc2O[C@@H]1CN(C)C(=O)Cc1ccccn1 | 0.952 ± 0.12
CN(C)C(=O)c1ccc(-c2ccc([C@H]3[C@@H]4CN(Cc5ccc6c(c5)OCO6)C[C@H]3N4)cc2)cc1 | 1.07 ± 0.09
COc1cccc(C#Cc2ccc([C@@H]3[C@@H](C#N)N(C(=O)c4ccccn4)[C@H]3CO)cc2)c1 | 1.04 ± 0.029

Compound | viability index
COc1ccc2c3c([C@@H](CO)N(C[C@]33CN(Cc4nccs4)C3)C(=O)Nc3cccc(F)c3)n(C)c2c1 | 1.03 ± 0.062
O=C(C[C@H]1CC[C@H]2[C@@H](COC[C@@H](O)CN2Cc2cc(F)cc(F)c2)O1)Nc1nccs1 | 1.12 ± 0.055
COc1ccc(CN2C[C@@H](O)COC[C@H]3O[C@H](CC(=O)N(C)C)CC[C@@H]32)cc1 | 1.05 ± 0.051
CN1C(=O)c2cc(NS(=O)(=O)c3ccccc3F)ccc2OC[C@@H]2O[C@@H](CC(=O)NC3Cc4ccccc4C3)CC[C@@H]21 | 1.109 ± 0.0019
Cc1ccc(S(=O)(=O)N[C@H]2C=C[C@@H](CC(=O)NCc3ccc(Cl)c(Cl)c3)O[C@@H]2CO)cc1 | 0.946 ± 0.095
Cc1noc(C)c1NC(=O)N(C)C[C@@H]1Oc2ccc(NC(=O)CCCN(C)C)cc2C(=O)N([C@@H](C)CO)C[C@@H]1C | 0.955 ± 0.084
CO[C@@H]1CN(C)C(=O)c2cc(NC(=O)c3ccc(F)cc3)ccc2OC[C@@H](C)N(C(=O)CC2CC2)C[C@@H]1C | 1.15 ± 0.064
CN1C(=O)c2cc(NC(=O)Nc3ccccc3F)ccc2OC[C@H]2O[C@H](CC(=O)NCCc3ccncc3)CC[C@@H]21 | 0.946 ± 0.048
C/C=C/c1ccc([C@@H]2[C@@H](CN(C)C(=O)CC3CC3)N(C(=O)C3CC3)[C@H]2CO)cc1 | 1.03 ± 0.013
COCC(=O)Nc1ccc2c(c1)C(=O)N(C)C[C@@H](OC)[C@H](C)CN(C(=O)c1ccncc1)[C@@H](C)CO2 | 1.07 ± 0.077
CCCC#Cc1ccc([C@@H]2[C@H]3CN(S(=O)(=O)c4ccccc4C)CC(=O)N3[C@H]2CO)cc1 | 1.07 ± 0.058
COc1cccc(C#Cc2ccc3c(c2)[C@@H]2[C@@H](CCN2C(=O)c2ccccc2F)[C@@H](CO)N3)c1 | 1.04 ± 0.12
CCNC(=O)[C@H]1[C@H](CO)[C@H]2Cn3c(ccc(-c4ccncc4)c3=O)[C@H]2N1Cc1cc(F)ccc1F | 1.09 ± 0.004
OC[C@@H]1[C@@H](c2ccccc2)C2(CN(Cc3ccccn3)C2)N1CCC(F)(F)F | 1.12 ± 0.045
N#C[C@@H]1[C@H](c2ccc(-c3cncnc3)cc2)[C@@H](CO)N1C(=O)Cc1ccccc1 | 1.03 ± 0.071
CS(=O)(=O)N1[C@H](C#N)[C@@H](c2ccc(-c3ccccc3F)cc2)[C@@H]1CO | 1.15 ± 0.082
CCCNC(=O)N(C)C[C@H]1Oc2cc(C#C[C@H](C)O)ccc2S(=O)(=O)N([C@@H](C)CO)C[C@@H]1C | 1.02 ± 0.041
